# According to PubChem BioAssay AID602340 (Broad Institute, 2012):
# The whole screen tested about 330,000 compounds, of which about 2,600 (0.79%) were called active. This list was built around the results that the source calls inconclusive (neither active nor inactive); the mix of calls is not that of the screen.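 How the source made its calls: active means mean ATP rescue above about 67%, or every replicate alone reaching that limit (limit read from the data, passing the limit was not always enough); inconclusive means no clear call, values can overlap the other calls; inactive means mean under the limit and some replicate under it.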
# Assay: suppressors of statin myotoxicity in C2C12 myotubes, primary screen, cell-based, single point, plate reader (AID 602340);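 further: myotubes were challenged with 10 µM simvastatin during compound exposure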
# Conditions: C2C12 myotubes + simvastatin, ATP luminescence, 48 h; at 7.49 µM; active compounds read high; scaled: DMSO 0, geranylgeraniol control 100
row,SMILES,rescue of ATP level
1,C[C@H]1CN([C@@H](C)CO)S(=O)(=O)c2ccc(-c3ccccc3)cc2O[C@@H]1CN(C)Cc1ccncc1,inactive: 3.49%
2,COc1ccc(S(=O)(=O)N(C)C[C@H]2Oc3c(NC(=O)Cc4ccccc4)cccc3C(=O)N([C@H](C)CO)C[C@@H]2C)cc1,inconclusive: 67.4%
3,COc1ccc(CNC(=O)c2sc(=S)n(-c3ccc(OC)cc3)c2N)cc1,inconclusive: 81.2%
4,COc1ccc(NC(=O)CN(C)CCOc2ccc(Cl)cc2)cc1OC,inactive: 1.27%
5,CCCCNc1nc(C)c(C(C)=O)cc1C#N,inconclusive: 70.5%
6,CC12CN3CC(C)(CN(C1)C3c1cc(Br)ccc1O)C2=O (stereo unspecified),inconclusive: 65.9%
7,CN(C)CCNC(=O)c1cccc(-c2cnc3c(NC=O)cc(/C=C/c4ccccc4)cn23)c1,inconclusive: 92.8%
8,O=C(c1ccc2c(=O)n3c(nc2c1)CCCCC3)N1CCN(C(c2ccccc2)c2ccccc2)CC1,inconclusive: 67.5%
9,O=C(c1cc(=O)[nH]c2ccccc12)N1CCN(c2ccc([N+](=O)[O-])cc2)CC1,inactive: 11%
10,C[C@H](CO)N1C[C@H](C)[C@H](CN(C)Cc2ccc(C(F)(F)F)cc2)Oc2c(NC(=O)Nc3cccc4ccccc34)cccc2C1=O,active: 81.4%
11,COc1ccc(N2CCN(c3oc(COc4ccc(Cl)cc4)nc3C#N)CC2)cc1,inconclusive: 76.8%
12,C=CCNC(=S)N/N=C/c1ccc(OCc2ccccc2)cc1,active: 106%
13,CN(C)Cc1ccccc1CNC(=O)c1cccc(S(=O)(=O)Nc2ccc3c(c2)OCO3)c1,inactive: -10.7%
14,CCOC(=O)N1CCN(C(=O)c2ccc3c(=O)n(CCc4ccccc4)c(=O)[nH]c3c2)CC1,active: 177%
15,C[C@H](CO)N1C[C@H](C)[C@@H](CN(C)S(=O)(=O)c2ccc(F)cc2)Oc2cc(Br)ccc2S1(=O)=O,inconclusive: 71.2%
16,CC1(C)C(c2ccc(Cl)cc2)=[N+]([O-])C2(CCCC/C2=N\O)N1O (stereo unspecified),active: 116%
17,C[C@H]1CCCCO[C@H](CN(C)C(=O)Nc2ccc(F)cc2)[C@@H](C)CN([C@@H](C)CO)C(=O)c2cc(NC(=O)Cc3ccccc3)ccc2O1,inactive: 44%
18,C[C@H]1CN([C@@H](C)CO)C(=O)Cc2cc(NC(=O)CCCCCC(=O)Nc3ccccc3N)ccc2O[C@H]1CN(C)Cc1ccc(-c2ccccc2)cc1,active: 142%
19,COc1ccc(S(=O)(=O)Nc2ccc3c(c2)C(=O)N([C@H](C)CO)C[C@H](C)[C@@H](CN(C)Cc2ccc(Cl)c(Cl)c2)OCCCC[C@H](C)O3)cc1,inconclusive: 66%
20,COc1ccc(C2C(Oc3ccccc3)C(=O)N2c2cc(C)ccc2C)cc1OC (stereo unspecified),active: 73%
21,C[C@@H]1CN([C@H](C)CO)C(=O)Cc2cc(NS(=O)(=O)c3ccc(F)cc3)ccc2O[C@@H]1CN(C)Cc1ccc(C(F)(F)F)cc1,inconclusive: 82.1%
22,C=CCNc1nnc(SC2CC(=O)N(c3ccc(OC)cc3)C2=O)s1 (stereo unspecified),inactive: -533%
23,C[C@@H]1CN([C@@H](C)CO)C(=O)c2cc(NS(=O)(=O)c3cccs3)ccc2O[C@H]1CN(C)S(=O)(=O)c1ccc(Cl)cc1,inconclusive: 66%

row,SMILES,rescue of ATP level
1,CCN(CC)S(=O)(=O)c1cccc(-c2nnc(SCC(=O)NC3CCCCC3C)n2N)c1 (stereo unspecified),inconclusive: 67.1%
2,CCc1nnc(NC(=O)CCC(=O)NCC2CCCO2)s1 (stereo unspecified),inconclusive: 75.4%
3,O=C(C[C@H]1CC[C@@H]2[C@H](COC[C@H](O)CN2C(=O)Nc2ccc(F)cc2)O1)NC1Cc2ccccc2C1,inactive: -10.8%
4,O=C(CSc1ncccn1)NCc1ccc2c(c1)OCO2,inconclusive: 71.3%
5,CCOC(=O)c1sc(CS(=O)(=O)c2ccc(Cl)cc2)nc1C,inactive: 15.8%
6,CCNC(=O)Nc1ccc2c(c1)C(=O)N(C)[C@H]1CC[C@@H](CC(=O)NCC3CCCCC3)O[C@@H]1CO2,inactive: 7.47%
7,Cc1noc(C)c1S(=O)(=O)N(C)C[C@H]1OCCCC[C@H](C)Oc2ccc(N(C)C)cc2C(=O)N([C@@H](C)CO)C[C@@H]1C,inactive: -0.08%
8,COCC(=O)N(C)C[C@@H]1Oc2ncc(C#Cc3ccccc3)cc2C(=O)N([C@H](C)CO)C[C@@H]1C,inactive: 7.36%
9,O=C(c1ccc2c(c1)CCN2S(=O)(=O)c1ccccc1)N1CCN(c2ccccc2)CC1,inconclusive: 65.4%
10,CN1C(=O)C2(c3ccccc31)C1CCCC=C1C(C#N)=C(N)C2(C#N)C#N (stereo unspecified),active: 155%
11,O=C(CCN1C(=O)/C(=C/c2ccc(F)cc2)SC1=S)NC1C=CS(=O)(=O)C1 (stereo unspecified),inconclusive: 83.8%
12,C[C@@H]1CCCCO[C@H](CN(C)C(=O)Nc2ccc(C(F)(F)F)cc2)[C@H](C)CN([C@@H](C)CO)C(=O)c2cc(N(C)C)ccc2O1,inconclusive: 66.2%
13,O=C(O)c1ccccc1NS(=O)(=O)c1cccc(-n2sc3ccccc3c2=O)c1,inconclusive: 65.5%
14,CCOc1cc(C2c3c(oc4cc(C)c(Cl)cc4c3=O)C(=O)N2Cc2ccco2)ccc1O (stereo unspecified),inconclusive: 65.4%
15,CCC(C(=O)O/N=C(\N)c1ccc(Cl)cc1)c1ccccc1 (stereo unspecified),inconclusive: 68.2%
16,O=c1cc(/C=C/c2ccccc2)oc2ccccc12,active: 138%
17,C[C@H](CO)N1C[C@H](C)[C@H](CN(C)C(=O)Nc2cccc3ccccc23)Oc2c(NC(=O)c3ccncc3)cccc2C1=O,inactive: -24.2%
18,CCOc1ccc(NC(=O)CSc2nnc(C3CC3)n2N)cc1,inconclusive: 75.3%
19,COc1ccc(NC(=O)N(C)C[C@H]2Oc3c(NC(=O)C4CCCCC4)cccc3C(=O)N([C@@H](C)CO)C[C@H]2C)cc1,inconclusive: 75.1%
20,CC1CCCCC1Nc1nc2ccc(Cl)cc2n2cnnc12 (stereo unspecified),active: 97.7%
21,Cc1cc(C)nc(NC(=O)CSc2nc3ccccc3s2)n1,inconclusive: 81.7%
22,N/C(CC(=O)Nc1cc(C(F)(F)F)ccc1Cl)=N\O,inconclusive: 10.5%
23,COc1ccc(NC(=O)C2CCC(N3C(=O)C4C5C=CC(C5)C4C3=O)CC2)cc1 (stereo unspecified),inconclusive: 68%
